# Reference: the supplement of paper PMC4967469
# Lines with a small IC50 respond at low doses; where the fit passes the top or lowest dose, that dose stands as a limit. AUC sums up the same curve from the lowest dose to the 256-fold higher top dose: 1 means no effect, lower means more sensitive. For part of these data: Where the top dose is marked as inferred, it was calculated from the reported fits.
# Assays:
# Assay in all cases: Viability of human cancer cell lines after 72 h of drug (GDSC screen)
# [1] = compound: O=C(O)c1ccc(-c2c[nH]c3ncc(-c4ccccc4)cc23)cc1C1CCCC1 [GSK-650394]; conditions: top dose 16 µM; top dose inferred
# Procedure: (§1)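 Human cancer cell lines in 384-well plates, medium with 10% serum, drug for 72 h over a 256-fold dose range (nine 2-fold or five 4-fold steps up to the top dose). Adherent lines were fixed and stained with the nucleic acid dye Syto60, suspension lines read with resazurin; signal relative to control wells, capped at 0 and 100%. One two-parameter sigmoid per drug and line, fitted in a mixed model over all curves with the slope shared within a line.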
# [2] = compound: COc1cc([C@@H]2c3cc4c(cc3[C@@H](O[C@@H]3O[C@@H]5CO[C@@H](C)O[C@H]5[C@H](O)[C@H]3O)[C@H]3COC(=O)[C@H]23)OCO4)cc(OC)c1O [Etoposide]; conditions: top dose 16 µM
# Procedure: as §1
# [3] = compound: C=C(c1ccc(C(=O)O)cc1)c1cc2c(cc1C)C(C)(C)CCC2(C)C [Bexarotene]; conditions: top dose 8 µM
# Procedure: as §1
# [4] = compound: Cc1ccc2nc(NCCN)c3ncc(C)n3c2c1 [BMS-345541]; conditions: top dose 16 µM
# Procedure: as §1
# [5] = compound: Oc1nc(-c2ccc(C(F)(F)F)cc2)nc2c1CSCC2 [XAV 939]; conditions: top dose 5 µM; top dose inferred
# Procedure: as §1
# [6] = compound: COc1ccc(C(=O)CC2(O)C(=O)Nc3c(Cl)ccc(Cl)c32)cc1 [YK 4-279]; conditions: top dose 10 µM
# Procedure: as §1
# [7] = compound: COc1cc(C(=O)NC2CCN(C)CC2)ccc1Nc1ncc2c(n1)N(C1CCCC1)C(C)CC(=O)N2C [NPK76-II-72-1]; conditions: top dose 10.24 µM; top dose inferred
# Procedure: as §1
# [8] = compound: NC(=O)Nc1cc(-c2cccc(F)c2)sc1C(=O)N[C@H]1CCCNC1 [AZD7762]; conditions: top dose 2 µM
# Procedure: as §1
Cell Line,AUC [1],IC50 [1] [µM],AUC [2],IC50 [2] [µM],AUC [3],IC50 [3] [µM],AUC [4],IC50 [4] [µM],AUC [5],IC50 [5] [µM],AUC [6],IC50 [6] [µM],AUC [7],IC50 [7] [µM],AUC [8],IC50 [8] [µM]
"RD (rhabdomyosarcoma, adherent)",0.949,> 16,0.661,2.93,0.955,> 8,0.893,> 16,0.979,> 5,0.685,2.18,0.87,> 10.2,,
"RERF-GC-1B (stomach, adherent)",0.977,> 16,0.85,14.4,0.956,> 8,0.881,> 16,0.929,> 5,0.842,8.28,0.897,> 10.2,,
"RT-112 (bladder, adherent)",0.485,0.907,0.397,0.51,0.984,> 8,0.873,> 16,0.983,> 5,0.688,2.19,0.863,10,,
"RXF393 (kidney, adherent)",0.941,> 16,0.822,14.6,,,0.895,> 16,0.921,> 5,0.75,4.42,0.864,> 10.2,0.552,0.183
"SAS (head and neck, adherent)",0.926,> 16,0.559,1.48,0.967,> 8,0.887,> 16,0.977,> 5,0.744,3.44,0.89,> 10.2,,
"SCC-15 (head and neck, adherent)",0.973,> 16,0.768,8.09,0.966,> 8,0.887,> 16,0.844,> 5,0.758,4.62,0.939,> 10.2,,
"SK-CO-1 (large intestine, adherent)",0.947,> 16,0.602,1.87,0.98,> 8,0.981,> 16,0.978,> 5,0.588,1.07,0.788,4.22,,
"SN12C (kidney, adherent)",0.888,> 16,0.598,1.92,0.937,> 8,0.952,> 16,0.956,> 5,0.901,> 10,0.963,> 10.2,,
"SNU-398 (liver, adherent)",0.842,11.8,0.497,0.981,0.817,4.71,0.634,2.38,0.984,> 5,0.763,3.73,0.698,2.36,,
